Measurements: patent US20240115550A1, “TREATMENT OF MENTAL DISORDERS” (GH Research Ireland Limited, priority 2022, published 2024)

Test system: patients with treatment-resistant major depressive disorder (TRD)
Experiment: Phase 1/2 clinical trial of inhaled 5-MeO-DMT in TRD

COc1ccc2[nH]cc(CCN(C)C)c2c1 [5-MeO-DMT]
SAEs (Part A): No SAEs were reported
safety laboratory analyses, vital signs, psychiatric safety assessments, measures of cognitive function (Part A and Part B): No clinically significant changes
patients with MADRS remission (Part A, 12 mg, n=4, day seven): 50%
patients with at least one ADR (Part A, in both groups (12 mg and 18 mg), all mild, resolved spontaneously): 3 of 4
SAEs (Part B): No SAEs were reported
